From the supplement of paper PMC7266297
Where a name gives a salt, the structure may show the parent alone. The list shows a part of the results. Single values are uncertain, as repeats are few or missing.
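Further: Read-out is SRB optical density at 490 nm, with the control being wells given 0.5% DMSO vehicle, and compound added one day after cells were plated.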

What follows are molecules tested on KB-V1 (assay: growth inhibition relative to DMSO control (SRB); cervical cancer cells: KB-3-1 is the parent and KB-V1 overexpresses MDR1; SRB is the sulforhodamine B stain; higher = more growth inhibition). Settings: 1 µM; 72 h.
Molecule CC(C)(C)c1cc(C=C(C#N)C#N)cc(C(C)(C)C)c1O [Tyrphostin 9] has a growth inhibition of 89.4%.
COC(=O)C1=CCCN(C)C1 [Arecoline] gave a growth inhibition of 3.73%.
In the case of COc1ccc(C(CN(C)C)C2(O)CCCCC2)cc1 (configuration not stated) [Venlafaxine], the growth inhibition was 38.1%.
With C[C@]12N[C@H](Cc3ccccc31)c1ccccc12 [MK-801 (Dizocilpine)] the growth inhibition was 15.7%.
Work on Fc1cc(F)c2c(c1)[C@H]1C=CC[C@H]1C(c1cccnc1)N2 (some centres not stated) [Golgicide A] yielded a growth inhibition of less than 0%.
With C[N+]1(C)[C@@H]2C[C@@H](OC(=O)[C@H](CO)c3ccccc3)C[C@H]1[C@@H]1O[C@@H]12 [Methscopolamine] the growth inhibition was 22.5%.
CN1CCC(c2c[nH]c3ccc(O)cc23)CC1 gave a growth inhibition of 36.2%.
CN1[C@@H]2CC[C@H]1C[C@@H](OC(=O)C(CO)c1ccccc1)C2 (some centres not stated) [Atropine] was tested, and the growth inhibition was 17.8%.
CC(NC(C)(C)C)C(=O)c1cccc(Cl)c1 (configuration not stated) [Amfebutamone HCl] gave a growth inhibition of 17.1%.
In the case of C[C@]12CC[C@H]3[C@@H](CC[C@@]45O[C@@H]4C(O)=C(C#N)C[C@]35C)[C@@H]1CC[C@@H]2O [Trilostane], the growth inhibition was 36.5%.
Molecule CCc1c(C(=O)C(N)=O)c2c(OCC(=O)O)cccc2n1Cc1ccccc1 has a growth inhibition of 19.8%.
In the case of O=C1CCC[C@@H]2[C@H]3CCCN4CCC[C@@H](CN12)[C@@H]34 [(+)-Matrine], the growth inhibition was 14%.
In the case of N[C@@H]1C[C@H]1c1ccccc1 [Tranylcypromine (2-PCPA) HCl], the growth inhibition was 7.14%.
Work on CC[C@@]1(O)C(=O)OCc2c1cc1n(c2=O)Cc2cc3ccccc3nc2-1 [Camptothecin] yielded a growth inhibition of 97.5%.
C=CCN1CC[C@]23c4c5ccc(O)c4O[C@H]2C(=O)CC[C@@]3(O)[C@H]1C5 [Naloxone HCl] was tested, and the growth inhibition was 8.05%.
COc1cc(-n2c(=S)[nH]c3ccccc3c2=O)c(Cl)cc1Cl [Mdivi-1] was tested, and the growth inhibition was less than 0%.
Cc1sc2c(c1C)C(c1ccc(Cl)cc1)=N[C@@H](CC(=O)Nc1ccc(O)cc1)c1nnc(C)n1-2 was tested, and the growth inhibition was 40.9%.
For C[C@]12CCC(=O)C(O)=C1CC[C@@H]1[C@@H]2CC[C@]2(C)C(=O)CC[C@@H]12 [Formestane], the growth inhibition was 21.5%.
CC[C@@H]1/C=C/C=C/C[C@H](C)[C@H](O)[C@](C)(O)C(=O)[C@H](C)[C@@H](O)[C@H](C)C(=O)[C@H](C)[C@@H](O)[C@H](C)/C=C/C(=O)O[C@H]2[C@@H](C)[C@@H](CC1)O[C@@]1(CC[C@@H](C)[C@@H](C[C@H](C)O)O1)[C@@H]2C [Oligomycin A] showed a growth inhibition of 70.5%.
CCN(CC)C(=O)c1ccc(C2=CC3(CCNCC3)Oc3cccc(O)c32)cc1 was tested, and the growth inhibition was 27%.
For Cc1sc2c(c1C)C(c1ccc(Cl)cc1)=N[C@@H](CC(=O)OC(C)(C)C)c1nnc(C)n1-2, the growth inhibition was 67%.
Work on C#C[C@]1(O)C=C[C@H]2[C@@H]3CCC4=CC(=O)CC[C@@H]4[C@H]3CC[C@@]21CC [Gestodene] yielded a growth inhibition of 31.4%.
Molecule CCCN1C[C@H](CSC)C[C@@H]2c3cccc4[nH]cc(c34)C[C@H]21 [Pergolide mesylate] has a growth inhibition of 16.9%.
CCOC(=O)c1cncn1[C@H](C)c1ccccc1 [Etomidate] was tested, and the growth inhibition was 39.6%.
For CCC(COC(=O)c1cc(OC)c(OC)c(OC)c1)(c1ccccc1)N(C)C (configuration not stated) [Trimebutine], the growth inhibition was 34%.
Work on O=C1CC[C@@]2(O)[C@H]3Cc4ccc(O)c5c4[C@@]2(CCN3CC2CC2)[C@H]1O5 [Naltrexone HCl] yielded a growth inhibition of 21.5%.
For O=c1[nH]c2ccc(Cl)cc2c(N[C@@H]2CN3CCC2CC3)c1-c1nc2ccccc2[nH]1, the growth inhibition was 82.3%.
Work on O=C(O)CNC(=O)c1c(O)c2ccccc2n(Cc2ccccc2)c1=O yielded a growth inhibition of 21.4%.
For COc1ccc(C(=O)N2CCCC2=O)cc1 [Aniracetam], the growth inhibition was 38%.
For CN1[C@@H]2CC(O)C[C@H]1[C@@H]1O[C@@H]12 (some centres not stated) [Scopine], the growth inhibition was 17.1%.
CN1CCc2cc3c(cc2C1C1OC(=O)c2c1ccc1c2OCO1)OCO3 (single isomer, unassigned; (+)) [(+)-Bicuculline] was tested, and the growth inhibition was 14.7%.
Molecule Cc1cccc([C@H](C)c2c[nH]cn2)c1C [Dexmedetomidine] has a growth inhibition of 11%.
CN1CCCCC1Cn1cc(C(=O)c2cc([N+](=O)[O-])ccc2I)c2ccccc21 (configuration not stated) showed a growth inhibition of 20.7%.
COC[C@H]1OC(=O)c2coc3c2[C@@]1(C)C1=C(C3=O)[C@@H]2CCC(=O)[C@@]2(C)C[C@H]1OC(C)=O [Wortmannin] gave a growth inhibition of 3.12%.
For CN(C)C(=O)Oc1ccc[n+](C)c1 [Pyridostigmine Bromide], the growth inhibition was 11.6%.
CNCC(O)c1ccc(O)cc1 (configuration not stated) [Synephrine] gave a growth inhibition of 32.7%.
Work on CN1[C@@H]2CC[C@H]1C[C@@H](OC(=O)[C@H](CO)c1ccccc1)C2 [Hyoscyamine] yielded a growth inhibition of 8.05%.
